The source of these data is PubChem BioAssay AID1745853 (National Center for Advancing Translational Sciences (NCATS), 2022).

What all share (assay): Primary Screen for Target Class Profiling of Small Molecule Inhibitors of Methyltransferases
In assay [1] the target is Glycine N-methyltransferase (Homo sapiens) (UniProt Q14749). Particulars: purified enzyme, MTase-Glo SAH luminescence; measured here: GNMT inhibition; at 40 µM; stronger effect = lower value. The method, boiled down:
(§1)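 Each enzyme was reacted with SAM and its substrate, with compounds tested once at 40 uM; SAH formed was read by MTase-Glo luminescence.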

Assay [2] concerns the target Guanidinoacetate N-methyltransferase (Homo sapiens) (UniProt Q14353). Conditions: purified enzyme, MTase-Glo SAH luminescence; measured here: GAMT inhibition; at 40 µM; stronger effect = lower value. The method, boiled down: as §1
Assay [3] concerns the target Histamine N-methyltransferase (Homo sapiens) (UniProt P50135). Particulars: purified enzyme, MTase-Glo SAH luminescence; measured here: HNMT inhibition; at 40 µM; stronger effect = lower value. In a few lines: as §1
For assay [4], the target named is Nicotinamide N-methyltransferase (Homo sapiens) (UniProt P40261). Conditions: purified enzyme, MTase-Glo SAH luminescence; measured here: NNMT inhibition; at 40 µM; stronger effect = lower value. The method, boiled down:
as §1

Assay [5] concerns the target Phenylethanolamine N-methyltransferase (Homo sapiens) (UniProt P11086). Conditions: purified enzyme, MTase-Glo SAH luminescence; measured here: PNMT inhibition; at 40 µM; stronger effect = lower value. In a few lines:
as §1

SMILES strings stand for the structures. This is one part of the list. Further columns of the screen follow, without active or inactive calls.
% is scaled to controls: 0 for no effect and ±100 for the full control effect.

For the compound `Cc1c(CN2CCCC23CCN(c2ccc(C(F)(F)F)cn2)CC3)cc(C#N)n1C`, the activity change, negative = inhibition in assay [1] is -2.09%; in assay [2] it was 2.57%; in assay [3], -4.26%; in assay [4], -1.46%; in assay [5], -10.3%.

For the compound `CCOC(=O)CC(NS(=O)(=O)c1ccc2[nH]c3c(c2c1)CCCC3)c1ccccc1Cl` (stereo not given), the activity change, negative = inhibition is 6.5% in assay [1]; 4.57% in assay [2]; 9.02% in assay [3]; -4.58% in assay [4]; 6.35% in assay [5].

`COc1cccc(Cn2nc3n(C(C)C)c(=O)c4ccc(C(=O)NC5CCCCC5)cc4n3c2=O)c1`: the activity change, negative = inhibition in assay [1] is -2.03%; in assay [2], 4.85%; in assay [3] it was 2.37%; in assay [4] it was -0.128%; in assay [5], 1.74%.

As to `O=C(NC[C@H]1OC[C@@H](NCc2ncc[nH]2)[C@@H]1O)c1cccs1`, the activity change, negative = inhibition is 0.238% in assay [1]; -9.17% in assay [2]; -0.304% in assay [3]; -2.27% in assay [4]; -0.086% in assay [5].

Consider `Cc1cc(O)cc(Oc2cc(C)c(C(=O)O)c(O)c2)c1`, for which the activity change, negative = inhibition in assay [1] is -13.4%; in assay [2] it was -4.27%; in assay [3], -16.7%; in assay [4], -23.4%; in assay [5] it was -3.4%.

As for `C/C(=C\CCC1(C)C2CCC(C2)C1(C)O)C(=O)O` (stereo not given), the activity change, negative = inhibition is -3.46% in assay [1]; 0.206% in assay [2]; 9.17% in assay [3]; -21.4% in assay [4]; 0.554% in assay [5].

As to `Cc1ccccc1CN1CCn2c(nn(CC3COc4ccccc4O3)c2=O)C1=O` (stereo not given), the activity change, negative = inhibition in assay [1] is -4.04%; in assay [2], -3.04%; in assay [3], -2.79%; in assay [4] it was -9.61%; in assay [5], -8.64%.

As to `CC1CC(C)CN(S(=O)(=O)c2ccc3c(c2)oc(=O)n3CC(=O)NCCCOC(C)C)C1` (stereo not given), the activity change, negative = inhibition in assay [1] is -4.8%; in assay [2], -22.1%; in assay [3], 9.69%; in assay [4], 9.81%; in assay [5], -7.45%.

`C=CC(C)(C)C12C=C(OC)C(=O)N3C(C(C)C)C(=O)NC31N(OC)c1ccccc12` (stereo not given): the activity change, negative = inhibition in assay [1] was -3.83%; in assay [2], 3.63%; in assay [3], 0.93%; in assay [4] it was -12.5%; in assay [5], -3.61%.

`Cn1c(=O)[nH]cc(CC(=O)NCc2cccnc2-n2ccnc2)c1=O`: the activity change, negative = inhibition is -4.49% in assay [1]; -14.4% in assay [2]; -6.1% in assay [3]; -12.1% in assay [4]; -9.45% in assay [5].

As for `Cc1noc2c(NC3CCN(C)CC3)cc(-c3cccs3)nc12`, the activity change, negative = inhibition in assay [1] is -5.18%; in assay [2] it was -0.208%; in assay [3] it was -63.2%; in assay [4], -22.3%; in assay [5], -22.9%.

Turning to `Cc1cccc(C)c1OCc1cc(C(=O)N2CCC(c3ccncc3)CC2)no1`, the activity change, negative = inhibition in assay [1] was -9.62%; in assay [2], -13.1%; in assay [3] it was -5.1%; in assay [4], -37.7%; in assay [5], -16.8%.

On to `O=C1CC(c2nc(-c3cn4ccccc4n3)no2)CN1Cc1ccncc1` (stereo not given), for which the activity change, negative = inhibition in assay [1] is -7.45%; in assay [2], -11.9%; in assay [3] it was -11.8%; in assay [4], -22.4%; in assay [5], -6.14%.

With `CC(C)CCn1c(=O)c2ccc(C(=O)NC(C)C)cc2n2c(=O)n(Cc3ccc(Cl)cc3)nc12`, the activity change, negative = inhibition in assay [1] was 4.31%; in assay [2], 0%; in assay [3], 6.16%; in assay [4] it was -3.08%; in assay [5], 2.95%.

On to `C=C1CC[C@@H]2C(C)(C)CCC[C@@]2(C)[C@@H]1CC/C(=C/C(=O)OC)COC(C)=O`, for which the activity change, negative = inhibition in assay [1] is -1.68%; in assay [2] it was -14.3%; in assay [3] it was 8.75%; in assay [4], -19.9%; in assay [5] it was -11.7%.

With `Cc1cnc(-c2ccccc2)n1CC1CCN(S(=O)(=O)Cc2ccccc2F)CC1`, the activity change, negative = inhibition in assay [1] is -5.54%; in assay [2], -0.835%; in assay [3], -7.93%; in assay [4], -10.6%; in assay [5], -16.5%.

As for `CC1(C(=O)NC2CCCCCCC2)Cn2c(ccc2-c2ccccc2)C(=O)N1CCc1ccccc1` (stereo not given), the activity change, negative = inhibition in assay [1] was -9.01%; in assay [2] it was -5.19%; in assay [3] it was -4.63%; in assay [4], -4.6%; in assay [5], -1.12%.

Take `O=C(C1CCCCC1)N1CC(=O)N2CCc3ccccc3C2C1` (stereo not given): the activity change, negative = inhibition in assay [1] is 1.25%; in assay [2] it was 13.3%; in assay [3], 7.06%; in assay [4], -2.65%; in assay [5], 6.85%.

As to `CC/C=C\C[C@H]1C(=O)C=C[C@@H]1CCCCCCCC(=O)O`, the activity change, negative = inhibition was -8.05% in assay [1]; -6.8% in assay [2]; 5.38% in assay [3]; -20.3% in assay [4]; 2.08% in assay [5].

Take `Cn1nc(C(=O)NC2CC2)c2c1CN(C(=O)Cc1cccc(F)c1)C2`: the activity change, negative = inhibition in assay [1] was -1.59%; in assay [2], -7.45%; in assay [3] it was -0.333%; in assay [4], -9.28%; in assay [5] it was -3.46%.

Regarding `C[C@@H]1CCO[C@H]2Cn3cc(C(=O)NCc4ccc(F)cc4F)c(=O)c(O)c3C(=O)N12`, the activity change, negative = inhibition in assay [1] is -7.39%; in assay [2] it was -10.5%; in assay [3] it was -2.31%; in assay [4], -25.1%; in assay [5], -6.87%.

As for `Cc1noc(C)c1C(=O)N1CCOc2ccc(CCC(=O)NCC3CC3)cc2C1`, the activity change, negative = inhibition is 2.02% in assay [1]; 0.912% in assay [2]; 2.51% in assay [3]; -4.12% in assay [4]; -0.276% in assay [5].

In the case of `COCC1CN(C2CCC2)CC12CCN(C(=O)NCCc1ccccc1)CC2` (stereo not given), the activity change, negative = inhibition in assay [1] was -5.28%; in assay [2], -5.59%; in assay [3] it was -4.41%; in assay [4], -11.1%; in assay [5] it was 13.6%.

As for `COc1c(C)c(OCC(O)C(C)(C)O)cc2c1COC2=O` (stereo not given), the activity change, negative = inhibition was 0% in assay [1]; -0.329% in assay [2]; -4.08% in assay [3]; -12.3% in assay [4]; -2.35% in assay [5].

For `C[C@H](C/C=C/C(C)(C)O)[C@H]1CC[C@@]2(C)[C@@H]3[C@@H](O[C@@H]4O[C@H](CO)[C@@H](O)[C@H](O)[C@H]4O)C=C4C(CC[C@H](O)C4(C)C)[C@]3(C=O)CC[C@]12C` (stereo not given in full), the activity change, negative = inhibition in assay [1] was found to be 0%; in assay [2] it was 13%; in assay [3] it was 10.6%; in assay [4], 1.15%; in assay [5], 3.54%.

Regarding `CNc1nc2c(c(C(=O)N3CCCC3)n1)CN(CC1(O)CCNC1)CC2` (stereo not given), the activity change, negative = inhibition in assay [1] was -0.396%; in assay [2], -1.41%; in assay [3], 0.011%; in assay [4] it was -0.695%; in assay [5], -0.622%.

As for `COc1ccc(-c2cc3n(n2)CC(C)(C(=O)NCc2ccccc2OC)N(c2cc(C)ccc2OC)C3=O)cc1` (stereo not given), the activity change, negative = inhibition in assay [1] was 1.53%; in assay [2], 5.13%; in assay [3] it was 7.04%; in assay [4] it was -0.033%; in assay [5], -0.061%.

As to `O=S(=O)(Nc1ccc(F)cc1)c1ccc2[nH]c3c(c2c1)CCCC3`, the activity change, negative = inhibition in assay [1] was -5.36%; in assay [2] it was 0%; in assay [3] it was 1.18%; in assay [4], -9.45%; in assay [5] it was 0.853%.

In the case of `Cc1ccccc1CNC(=O)C(C)n1ccc2cc(S(=O)(=O)N3CCCC3)ccc21` (stereo not given), the activity change, negative = inhibition in assay [1] is -3.74%; in assay [2] it was -3.07%; in assay [3], -1.46%; in assay [4] it was -8.48%; in assay [5], -5.1%.

In the case of `COc1ccccc1CNC(=O)C1c2c(n(C)c3ccccc23)SCC(=O)N1c1ccc(C(C)C)cc1` (stereo not given), the activity change, negative = inhibition in assay [1] is 6.33%; in assay [2] it was 3.3%; in assay [3], -1.03%; in assay [4] it was 5.1%; in assay [5] it was 5.82%.
